According to the supplement of paper PMC11417369:
± gives the standard deviation of the averaged measurements. This is one part of the list.

tested on: PfAP2-G AP2 domain (GST-tagged); test: gcPBM binding intensity (ln(normalized median fluorescence intensity)); higher = stronger DNA binding
In short: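 Plasmodium falciparum DNA-binding domains carrying a GST tag were expressed in E. coli and applied for 1 h, at about 25 μg on average, to an Agilent 4 × 180k array. The array held primer-extended double-stranded 36-bp intergenic genomic probes together with negative controls, and binding took place in 1× PBS with 1% milk, 0.2 mg/ml BSA, 0.5% salmon testes DNA and 0.03% Triton X-100. An Alexa488 anti-GST antibody detected bound protein, and the array was scanned at 488 nm. Binding intensity is taken as the highest Masliner-normalised natural-log median intensity across replicate spots of either probe orientation.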

Sequence | gcPBM binding intensity (ln)
ATAATTCCAAGAATTTCATATATCTGAATTTTAGGT [GTGCAC_negctrl_site283] | 9.61 ± 0.2
ATATATATATATATTACACACTTTTTCTTTTTTTTT [CACACA_site2780] | 9.9 ± 0.45
AATAAACATAAATAAAAATTATAAAATATATATATG [CACACA_negctrl_site1709] | 9.65 ± 0.071
AAAAAAAAATATACATATATATATATATATATATAT [CACACA_negctrl_site1763] | 9.74 ± 0.56
GTGGAATAATATATATGTACATATTTAAAATATTTA [XGTACX_site3499] | 11.1 ± 0.66
AATGGTCTTTTCAACACACGTACATAAAAATATTAT [CACACA_site2571] | 11.5 ± 0.95
TATTATTTTAGAATGCGTACTTATAAAATATTTTAT [XGTACX_site867] | 11.5 ± 0.96
ATTTTTTTACAAAAATGTACACATGAAATATGTAAT [XGTACX_site1372] | 11.3 ± 0.69
TAAAAGTATATATATACACACATAAATATATCTGTA [CACACA_site4537] | 9.76 ± 0.028
TGACAACATAGAGGGGCACACACATATATACATAAA [CACACA_site8550] | 10.6 ± 0.53
TTAAATTATTAGAGAGTGCATTATATATATTATACA [GTGCAC_site9711] | 9.71 ± 0.13
GTGTGATGGTCCAATATACACACTTAAAAAAAAAAA [CACACA_site2426] | 10.8 ± 0.72
TACTGTTATAAATGTGGTACTAATATTATACATATA [XGTACX_site5116] | 11.1 ± 0.74
TATATATATATATACACATGCAAAAATTTTTAATTT [TGCATGCA_site82] | 10.2 ± 0.35
TTTCTATATGGATTTGCACACATAAAAATGCTTATA [CACACA_site8751] | 10.1 ± 0.26
TTATTTAACGTATTCTCACACATATATATATATAAT [CACACA_site5226] | 10.3 ± 0.23
ACATAAGAATTTTTATGTACTCATAATATTTTATAT [XGTACX_site2398] | 11.5 ± 0.96
TACATACTAAAAAAATGTACTTGTATTGTTTTTTTA [XGTACX_site8357] | 11.1 ± 0.64
GAAATATTTGTAAAAACATGCATGGTACTTTTAAAA [TGCATGCA_site6] | 11 ± 0.7
TAGAAGCATCATTTTACACACATGCAAATGTAAAAT [CACACA_site1893] | 9.83 ± 0.085
AAAAATAAGAGCGTAGCACACACGCATTTTATAAAT [CACACA_site8147] | 9.985 ± 0.035
TCTTTAATGATGTGTACACAAGAAAACATTGTTAAG [CACACA_site5299] | 11.7 ± 0.89
TATTTCTTATTACATACACACATATACATATATGAC [CACACA_site3201] | 10.12 ± 0.092

Sequence | gcPBM binding intensity (ln)
TCCAGGCTACACTCTAGTACTCGTAGGGTTATGAGA [XGTACX_site4945] | 11.1 ± 0.7
TTATTGAACTTTTATAAAACCTGTATTATTATCTCT [CACACA_negctrl_site767] | 9.99 ± 0.071
TTATATTAATAATAAAGTACAAAAAATCATATATAA [XGTACX_site799] | 11.1 ± 0.67
ATGACATATAAATATACACACATACGTAAGTATATT [CACACA_site5058] | 9.96 ± 0.11
ATATATATATATATATGTACATATGTTAGGATCAAA [XGTACX_site8626] | 11.3 ± 0.68
AAATTAAAAATAATTACACACATAGAAAAATTATAT [CACACA_site2275] | 9.79 ± 0.2
GTAATACACAGACACACACACATACACATATTTATA [CACACA_site7313] | 10.3 ± 0.17
TTCTATATATAATATTGTACTTAATTATTTTATTTT [XGTACX_site2701] | 11.1 ± 0.59
AGTGTATATAGAAACATACACACATATTAATTTTAC [CACACA_site3127] | 9.985 ± 0.021
TAGCTGTTCAAAAAATGTACATATATAATATATATA [XGTACX_site5842] | 11.2 ± 0.91
ATATATATGCATTCAAGTACAAAAATATATGTTAAA [XGTACX_site910] | 10.9 ± 0.64
TTATATTTATATTTATGTACATATTTTGTGTGAAAA [XGTACX_site2367] | 11.4 ± 0.97
TCTATTTATATGTATTGTACAATATAGATGTGTATT [XGTACX_site5646] | 10.9 ± 0.51
CCTAAATAATATCTATCACACACGCATATATACATA [CACACA_site8838] | 9.73 ± 0.18
AAAAAAAAAAAAAAAACACACATATATATATAATAT [CACACA_site1159] | 10.1 ± 0.21
GATAATCAGAATGGGGTGCAAAGAAAAAAAAAAAAA | 10.6 ± 0.8
ATATAATAACATAACACACACATGTATTTATAGGTG [CACACA_site359] | 10.31 ± 0.035
ACATTATAATATTATTGTACTATATATATAATATAT [XGTACX_site2291] | 11 ± 0.47
ATGTATATAAATAGGTGTACATATAAGGTGTTAAGC [XGTACX_site5465] | 11.6 ± 0.83
ATAATAAGAAAAAAAAAAAAAAAAAAAAAAAAAAAA [TGCATGCA_negctrl_site377] | 9.59 ± 0.58
ATATTGAAATGTTAATAGAAATATATGGTTAAATTG [XGTACX_negctrl_site212] | 9.89
TACACAAACGTTATACGTACACAGGTTTTTCTTTTA [XGTACX_site5427] | 11.4 ± 0.91
AGAATTAAAATAATACGTACACACATGTATAATACA [XGTACX_site1878] | 11.5 ± 0.82

Sequence | gcPBM binding intensity (ln)
ATTATATCTATAATATGTACATATTATAATATATAT [XGTACX_site3211] | 11.1 ± 0.55
AATTGTTAATGGTACGAACACACATATAAAGATGCA [CACACA_site2043] | 10.7 ± 0.43
ATATGGCATAAAACATGTACATGTTCATAAATATAT [XGTACX_site1924] | 11.2 ± 0.68
ACCTCTCATATGTTATAAACAAAATGAAAATTTCAT [XGTACX_negctrl_site303] | 10.1 ± 0.31
ATTTTATTTTATTAAGTGCAAAAAAAAAAAAAGAAA | 10.1 ± 0.45
TGTACAATATAAGGAGCACACAAAAATGGATAAATA [CACACA_site8216] | 10.45 ± 0.085
AAATAATCTATACACAACGTATAAGAATAATATATG [TGCATGCA_negctrl_site422] | 10.1 ± 0.18
TAAATAATGTTAAACACACATACCGATATATAATTA [CACACA_site2711] | 9.815 ± 0.007
GCTAGTTCATAAAATTGTACAAAAAAAAAAAAAAAA [XGTACX_site2223] | 10.8 ± 0.76
TTTTTTATCTAATATTTTATAATTTTCATAAATTTG [GTGCAC_negctrl_site534] | 9.71 ± 0.16
AAAAAAAAAAAAAAAAGTACATGCCATATATTTTCA [XGTACX_site4580] | 11.6 ± 0.83
TTTTAAGAAAAAAAATGTACACATGAAAATAGTGAA [XGTACX_site5898] | 11.4 ± 0.77
AAATTTTCACTTCAAAAACACACGTATTTTTTTCCT [CACACA_site3813] | 10.115 ± 0.007
TGTTATATTATAACTACACACGTATTATGTTATATC [CACACA_site839] | 10.5 ± 0.29
TATATATAAGAAAAAAGTACAGATATATATATATTC [XGTACX_site4788] | 11.6 ± 1.1
TATACAGACAGACACACACACATATATATATATATA [CACACA_site1734] | 10.2 ± 0.24
AGAACTTAATGCTGCACACAAAAAAAAGGAAAAATA [CACACA_site1353] | 10.1 ± 0.42
TTCTTTAAAATGATATACGTTATAAATATATATATA [XGTACX_negctrl_site256] | 9.99 ± 0.2
AACTTGTATATATACACACACACACTGTCTTTTTTT [CACACA_site1963] | 10.08 ± 0.014
TGATCACATAATAAATGTACAAAAAAAAATTAATAA [XGTACX_site5867] | 10.9 ± 0.48
AAAAAAAAGTTGTAAGTGCATGTATATAATAATATT | 9.89 ± 0.14
TAAGGAAGAAGAAAAAGTACTAAAGGTATAAATGCG [XGTACX_site2628] | 11 ± 0.54
TTTAGATAATTCATTACACACATGTATATATATATA [CACACA_site3483] | 10.1 ± 0.33

Sequence | gcPBM binding intensity (ln)
AAAAAAAAAATATATTGTACAATATTGTAGCTATAT [XGTACX_site7180] | 10.8 ± 0.47
TTCAATAGTAAGTATACACACATATAAATAAATAAA [CACACA_site7295] | 10.2 ± 0.21
TTTTTATTGTTGCTATATTTATAACAATTTATCATA [GTGCAC_negctrl_site75] | 9.7 ± 0.11
GCAACCTTGTGCAAATGTACAAAAAAAAAAAAAAAA [XGTACX_site679] | 10.6 ± 0.79
TTTTTGTTATTTTTAGTGCAGAAGAATAAATTTTAA | 10 ± 0.17
AAAATTTCTTATTTTGTACACACAATAAATATTCAC [CACACA_site8464] | 11.1 ± 0.65
CAATTTATAAAGAAAACACACATATACATAAATACA [CACACA_site4829] | 10.2 ± 0.16
TATAAATTAAAACATTGTACATTTTTATTATTATGT [XGTACX_site579] | 10.8 ± 0.47
TATCTTACTTTTTGCACACACTAATATTATTGTTTA [CACACA_site4990] | 10.3 ± 0.21
AAAATTAATATCTTGGTGCATTTTTTAATATTATTA [GTGCAC_site9638] | 9.96 ± 0.071
ACAACTATTCATCATAGTACACGCATGATATATATA [XGTACX_site1539] | 10.9 ± 0.53
TATATATATGGACACACACACATATATATATATTTT [CACACA_site5409] | 10.9 ± 0.71
TATATATAATATAGTGCATGTAAAAAATAAACCATG [TGCATGCA_site932] | 10.2 ± 0.16
TTTTTTTTTTAAATGTGTCCTCATTATAATATATGT [XGTACX_site5331] | 11.2 ± 0.93
TTTTTTAAATTATATTATAGCAAATAAATATTAAAA [CACACA_negctrl_site1655] | 9.81 ± 0.28
TAATTATGCGGACACACACACACACCCAACTAAAAA [CACACA_site5427] | 11.4 ± 0.86
GCATTATTATATATTTGTACATATTTTTTTTTAAAA [XGTACX_site5436] | 11.2 ± 0.64
ATGTCACAATTTTTCACACACAAAATTTAAATACAT [CACACA_site5168] | 10.3 ± 0.17
TATTATTATATATATAGTACATAAAATATAAAAAAA [XGTACX_site2060] | 11 ± 0.69
TCAAATTTTCAACATTGTACATAAATGTATAAATAT [XGTACX_site6042] | 10.8 ± 0.57
